Experimental data: PubChem BioAssay AID1645882 (National Center for Advancing Translational Sciences (NCATS), 2021)
In all, about 16,000 compounds went through this assay and about 120 (0.75%) were called active. Another 4% or so got no clear call; they are omitted. Calls come from the whole dose curve; as a rule, active = well fitted inhibition curve with a large enough effect; inconclusive = small, poorly fitted or top-dose-only effect; inactive = no such curve, though single readings can be large or run the other way. Some of the results follow.

These molecules were tested against Rap guanine nucleotide exchange factor 3 (Homo sapiens) (UniProt O95398) (assay: Validation qHTS for antagonist of cAMP-regulated guanine nucleotide exchange factor 3 (EPAC1)). Settings: EPAC1 Rap1B-BODIPY-GDP exchange, fluorescence; series mostly up to 150 µM; activity change, negative = inhibition: at the top concentration.
Procedure, shortened: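 Nucleotide exchange followed as fluorescence loss when BODIPY-GDP leaves Rap1B (480 nm excitation, 540 nm emission), read at 5 min intervals over 30 min. Reaction: 100 nM EPAC1, 250 nM RAP1B-BODIPY-GDP, 50 uM GDP; ATA and DMSO define normalization.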
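Note: plate controls were DMSO for no effect and ATA control for full effect; nearly all actives have a fitted effect of over 75% in size.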

Chain of UniProt O95398 (O95398 whole entry, looked up): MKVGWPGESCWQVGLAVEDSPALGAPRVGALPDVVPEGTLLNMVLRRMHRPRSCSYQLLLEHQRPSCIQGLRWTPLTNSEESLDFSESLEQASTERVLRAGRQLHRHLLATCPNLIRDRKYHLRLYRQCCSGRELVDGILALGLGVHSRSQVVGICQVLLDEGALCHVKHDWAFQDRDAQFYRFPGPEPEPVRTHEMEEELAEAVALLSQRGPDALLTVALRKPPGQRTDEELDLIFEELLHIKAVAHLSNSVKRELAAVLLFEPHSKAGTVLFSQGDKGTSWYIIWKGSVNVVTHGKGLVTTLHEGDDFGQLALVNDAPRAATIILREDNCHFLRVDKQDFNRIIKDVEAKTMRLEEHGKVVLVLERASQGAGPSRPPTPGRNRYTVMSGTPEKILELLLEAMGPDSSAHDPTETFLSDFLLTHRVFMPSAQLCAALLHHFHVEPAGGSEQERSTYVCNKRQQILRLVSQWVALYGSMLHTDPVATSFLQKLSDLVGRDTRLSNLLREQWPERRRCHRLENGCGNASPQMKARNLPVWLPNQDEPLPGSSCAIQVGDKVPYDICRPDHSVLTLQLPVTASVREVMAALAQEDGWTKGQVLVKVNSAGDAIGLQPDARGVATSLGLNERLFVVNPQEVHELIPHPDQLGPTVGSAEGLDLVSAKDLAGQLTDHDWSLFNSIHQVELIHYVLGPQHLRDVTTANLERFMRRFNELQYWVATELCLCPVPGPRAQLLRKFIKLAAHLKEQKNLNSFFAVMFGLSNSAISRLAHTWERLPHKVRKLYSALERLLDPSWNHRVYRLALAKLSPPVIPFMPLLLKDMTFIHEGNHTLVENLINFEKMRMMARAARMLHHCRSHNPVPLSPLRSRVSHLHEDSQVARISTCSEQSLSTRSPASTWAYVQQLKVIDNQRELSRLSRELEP

Activity change, negative = inhibition, inactive:
Cc1ccnc2ccc(N)cc12 18.2%
CCOC(=O)COc1ccc2c(=O)cc(-c3ccccc3)oc2c1
C/C(N[C@@H]1CSCC1O)=C1/C(=O)CC2[C@@H]1C2(C)C (some centres not stated) 8.88%
COc1c(CC(=O)c2cc3c(cc2O)OC(C)(C)C(O)C3)ccc2c1C=CC(C)(C)O2 (configuration not stated) -15.3%
CC(C)/C(O)=C1/C(=O)OC(c2ccoc2)[C@@]2(C)C(O)C(O)[C@@]34OC5(C)OC67CC(C)(C(O)[C@@]6(O)C(O)[C@@]3(O5)C12)C(CC(=O)O)[C@@]74C (some centres not stated) 9.26%
COc1cc2c(Nc3ccc(Br)cc3F)ncnc2cc1OCC1CCN(C)CC1 12.5%
Cc1noc(C)c1C(=O)N1CCC2(CCCN(C(=O)Nc3cccc(F)c3)C2)CC1 19.3%
CS(=O)(=O)N1CCC2(CCN(Cc3ccc(C#N)cc3)CC2)CC1 19%
CCCCCCCC/C=C\CCCCCCCC(=O)OC[C@H](CO)OC(C)=O 1.23% [at 15.3 µM]
O=C(Nc1ccccc1)N1CCC2(CCNCC2)CC1 14%
CSc1cc2c(cc1C(F)(F)F)N(C(=O)Nc1cccnc1)CC2 6.12%
CCCCC 3%
c1cncc(CNc2ncncc2-c2ccoc2)c1 9.34%
C/C(=C\c1ccco1)CN1CCOc2ccc(CN3CCC(Oc4cccnc4)CC3)cc2C1 10.8%
CC1(C)OC[C@@H]2O[C@@]3(C(=O)O)OC(C)(C)O[C@H]3[C@@H]2O1 6.31%
CO[C@H]1[C@H](NC(=O)C(C)C)c2ccccc2C12CCN(Cc1c(C)nn(C)c1Cl)CC2 10%
CCn1c(-c2ccccc2F)nc2cc(C(=O)NCC3CCOCC3)cc(NC(C)=O)c21 16.5%
CCCCC/C=C\C/C=C\C/C=C\C=C\[C@@H](O)CCCC(=O)O 25.8% [at 1.57 µM]
COc1c2c(cc3c1C(NC(N)=O)[N+](C)(C)CC3)OCO2 (configuration not stated) 16.2%
CC1=C(C(=O)OCc2ccccc2)N2C(=O)[C@@H](NC(=O)COc3ccccc3)[C@H]2SC1 -6.58%
CCCCCCCCCCCCCCC[C@H](O)[C@@H](N)CO
COc1ccc(Oc2ncc3ncc(=O)n(Cc4cccc(OC)c4)c3n2)cc1 -8.12%
COC(=O)CCC(C)C1CCC2C3C(O)C[C@@H]4CC(O)CC[C@@]4(C)C3CC(O)[C@]12C (some centres not stated) 4.95%
O=S1(=O)CCOCCCN1Cc1ccccc1Br 13.6%
CC[C@@H]1C(=O)[C@H](Cc2ccccc2)[C@H]2CCCC(=O)N3CC[C@@H]1[C@@H]23 5.86%
COc1ccccc1-c1ccnc(-n2ncc(C(=O)N(C)C(C)c3ccon3)c2C2CC2)n1 (configuration not stated) 10.7%
Cc1cccc(CNC(=O)c2cnn(-c3nccc(-c4ccccc4C(F)(F)F)n3)c2C)n1 -1.18%
COc1ccc(NC(=O)N2CC[C@@]3(CCCN(C(=O)c4ccco4)C3)C2)cc1 19.7%
Cc1noc(C)c1C(=O)N1CCC2(CCN(C(=O)NC(C)C)CC2)CC1 10.8%
Cc1cnc(CNc2cc(-c3ccoc3)ncn2)cn1 23.8%
COc1cc(C)c(CN2CCC3(CCC(CNC(=O)c4ccnn4C)O3)CC2)cc1C (configuration not stated) 0.511%
O=C(c1cnccn1)N1CCC[C@@]2(CCN(Cc3nccs3)C2)C1 15.7%
Fc1ccc(CN(C2=NCCN2)c2c(Cl)cccc2Cl)cc1 -10.1% [at 75.8 µM]
CC(=O)Nc1ccc(/C=C/c2ccccn2)cc1 11.3%
O=c1c(CCc2ccccc2)nc2cnc(N3CCNCC3)nc2n1Cc1cccs1 11.1%
CN1C(=O)c2ccccc2C1=O 21.3% [at 320 µM]
IC(I)I 10.6%
COc1ccccc1-c1ccc2ncnc(N(C)Cc3ccco3)c2c1 -22%
O=C(O)c1nc2cc(Cl)c(Cl)cc2[nH]c1=O 15.8%
Cn1c(SCC2CCCO2)nnc1C1CCN(Cc2ccc(-c3cccc(Cl)c3)o2)CC1 (configuration not stated) 17.5%
CCC(CO)NCCNC(CC)CO (configuration not stated) 9.29%
CCCC1CC(C(=O)N[C@H](C(C)O)C2OC(SC)[C@@H](O)C(O)C2O)N(C)C1 (some centres not stated) 11.2%
OCCN(CCO)c1ccc(/C=C/c2ccnc3ccccc23)cc1 -21.7%
CCCCCCCC/C=C\CCCCCCCCOC[C@H](COP(=O)([O-])OCC[N+](C)(C)C)OC(C)=O 22% [at 15.3 µM]
CC1(C)CCC(=O)N2CC[C@H]3C[C@H](OC(=O)Nc4ccc(Br)cc4)C[C@@H]1[C@H]32 -15.1%
O=C(c1csnn1)N1CCC2(CC1)CN(C(c1ccccc1)c1ccccc1)C2 6.03%
c1cnc(N2CCN(Cc3ccc4c(c3)OCO4)CC2)nc1
COc1ccc(/C=C/C(=O)c2cccs2)c(OC)c1 -20%
c1nc(NC2CC2)c2cc(-c3ccoc3)ccc2n1 -0.61%
c1ccc(CNc2ncnc3ccc(-c4cccnc4)cc23)cc1 14.7%
C/C(=C\CNc1ncnc2nc[nH]c12)CO -5.76%
C[C@](N)(Cc1ccc(O)c(O)c1)C(=O)O
CN(C)C(=O)c1ccc(-c2cncnc2NCc2cccs2)cc1 22.5%
N[C@H]1CN(c2c(F)cc3c(=O)c(C(=O)O)cn(C4C[C@@H]4F)c3c2Cl)CC12CC2 (some centres not stated) 16.6%
CCNc1ncc2nc(-c3ccc(Cl)cc3)c(=O)n(-c3ccc(OC)cc3)c2n1 33.6%
Clc1ccc(C(Cn2ccnc2)OCc2ccsc2Cl)c(Cl)c1 (configuration not stated) -10.6%
COc1cc(=O)n2c(c1C(=O)N(C)Cc1nonc1C)CCN(Cc1cccc3ccccc13)CC2 5.59%
C[N+]1(CC(=O)c2ccc(I)cc2)CCOCC1 -0.512%
CCCC1C(=O)N2C(N(C)C)=Nc3ccc(C)cc3N2C1=O (configuration not stated) 10.4% [at 75.8 µM]
C=CC(C1=CC(=O)C(OC)=CC1=O)c1ccccc1 (configuration not stated) -19.4%
COc1cc2c(cc1OC)CC(=O)N(CCCN(C)C[C@H]1Cc3cc(OC)c(OC)cc31)CC2 2.07%
O=C(c1cnccn1)N1CCC2(CCN(Cc3ccccc3)CC2)CC1 19.8%
NCC1OC(n2cnc3c(=O)[nH]c(N)nc32)C(O)C1O (configuration not stated) 2.05%
CCCCCCC[n+]1ccc(/C=C/c2c[nH]c3ccccc23)cc1 45.2%
CC[N+](CC)(CC)CCOc1ccc(/C=C\c2ccccc2)cc1 4.5%
O=c1c(-c2ccccc2)nc2cnc(N3CCOCC3)nc2n1C[C@H]1CCCO1 9.32%
CCCCCCCCCCCCOCCOCCOCCOCCOCCOCCOCCOCCOCCO -16.2%
COCCCNc1ncnc2sc(C(=O)N3CCOCC3)c(C)c12 13.1%
COC(=O)c1cc(=O)c(O)c2c(O)c(O)ccc2c1 -12.7%
COC(=O)C1CCCCN1Cc1nc(N2CCCN(C(C)=O)CC2)c2ccccc2n1 (configuration not stated) 5.63%
COc1cccc(-c2nc(Nc3ccncc3)c3ccccc3n2)c1 15.7%
COC(=O)/C=C/c1ccc(C(=O)NCC(=O)N[C@@H](CCC(=O)OC)C(=O)N[C@@H](CC(C)C)C(N)=O)cc1 12.4%
O=C(Nc1ccccc1)N1CC2(CCN(C(=O)c3cccc(F)c3)CC2)C1 9.19%
O=c1c(-c2ccc(F)cc2)nc2cnc(Oc3ccccc3)nc2n1C1CC1 2.74%
OC1(c2cccnc2)CCN(Cc2ccc3c(c2)CN(Cc2cc(F)ccc2F)CCO3)CC1 16.6%
NS(=O)(=O)c1ccc(Cl)c(S(N)(=O)=O)c1 12.7%
CN(C)Cc1ccccc1-c1cncnc1NCc1cccs1 17.8%
CCC1COCCS(=O)(=O)N1Cc1ccccc1C (configuration not stated) 12.5%
COc1cc(C)c2ccccc2n1 25.2%
Cc1cc2c(c(-c3cnccn3)c1)OC(CNC(=O)C1CCCN(C)C1)C2 (configuration not stated) 18.7%
CCc1ncnc2cc(OC)c(OC)cc12 1.45%
COc1ccc(CNc2ccnc(-c3ccccc3OC)n2)c(OC)c1 -10.6%
Clc1ccc2nccnc2c1 19.4%
COc1ccccc1C(=O)N1CCOc2ccc(C(C)(O)CCn3cccn3)cc2C1 (configuration not stated) -13.4%
CC(=O)N1CCN(c2ccc(OCC3CO[C@@](Cn4ccnc4)(c4ccc(Cl)cc4Cl)O3)cc2)CC1 (some centres not stated) -2.44%
Cc1cccc(CNc2ncnc3ccc(-c4ccoc4)cc23)c1 -4.28%
Cc1c(C(=O)NN2CCCCC2)nn(-c2ccc(Cl)cc2Cl)c1-c1ccc(Cl)cc1 12.6%
Cn1cccc1C(=O)N1CCC2(CCCN(c3ccccc3)C2)CC1 3.97%
O=C1C=C(O)c2ccccc2C1=O
CC1=C2C(=CO[C@H](C)[C@H]2C)C(=O)C(C(=O)O)=C1O 15.4%
CC(C)NS(=O)(=O)c1cc(C(F)(F)F)ccc1/C=C/C(=O)O 8.02%
CC(=O)C[C@H]1c2ccccc2S(=O)(=O)N1C1CCCC1 21.8%
COCCNc1ncnc2ccc(-c3ccc(C(=O)N(C)C)cc3)cc12 14.5%
O=C(NC1CC1)[C@@H]1C[C@@H](Sc2nc3ccccc3[nH]2)CN1CC1CCCCC1 -10.3%
CCNc1ncc2nc(-c3ccc(OC)cc3)c(=O)n(Cc3cccs3)c2n1 0.856%
CC(C)NCC(O)COc1ccc(CCOCC2CC2)cc1 (configuration not stated)
CC(=O)[C@@]1(O)CC[C@H]2[C@@H]3C[C@H](C)C4=CC(=O)C=C[C@]4(C)[C@@]3(F)[C@@H](O)C[C@@]21C 15.5% [at 75.8 µM]
CC(=O)Nc1ccc(OC(=O)c2ccccc2OC(C)=O)cc1 9.18%
c1ccc2sc(SN3CCOCC3)nc2c1 -6.18%
COc1cccc(-c2cc3c(c(OC)c2)OCCN(Cc2cccn2-c2ccccn2)C3)c1 2.77%
CCc1nc(N)nc(N)c1-c1ccc(Cl)cc1
N#Cc1cccc(-c2cc(-n3ccnc3)ncn2)c1 23.1%
COC(=O)CCCOc1ccc(Cl)cc1Cl 8.01%
Cc1ncc2c(c1CNC(=O)c1ccc3c(c1)OCO3)CCN(C(=O)c1cc3ccccc3n1C)C2 6.07%
O=C(c1cccc(F)c1)N1CCC2(CCCN(c3ccccc3)C2)CC1 1.21%
FC(F)(F)c1ccccc1-c1cncnc1NCCN1CCOCC1 9.57%
COc1ccc(OC)c(CN2C[C@H](Sc3ccc(F)cc3)C[C@H]2C(=O)N(C)C)c1 10.3%
